According to PubChem BioAssay AID1645887 (National Center for Advancing Translational Sciences (NCATS), 2021):
Where “and” joins values, the source holds several entries; their conditions need not be identical. Equal values may be shown once. Screen size: about 16,000 compounds; about 40 (0.2%) were called active. Roughly 1% stayed inconclusive and do not appear here. Calls come from the whole dose curve; as a rule, active = well fitted activation curve with a large enough effect; inconclusive = small, poorly fitted or top-dose-only effect, or another doubt; inactive = no such curve, though single readings can be large or run the other way. The list shows a part of the results.

Molecular target: Rap guanine nucleotide exchange factor 4 (Homo sapiens) (UniProt Q8WZA2)
Test: Validation qHTS for agonist of cAMP-regulated guanine nucleotide exchange factor 4 (EPAC2);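 note: exchange makes BODIPY-GDP fluorescence drop when released from Rap1B; series mostly up to about 150 µM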
Conditions: EPAC2 Rap1B BODIPY-GDP exchange, fluorescence; activation: hits give high values
From the text: Principle Investigator: Xiaodong Cheng Ph.D.
The University of Texas Medical Branch, […], TX
In multi-cellular eukaryotic organisms, the effects of cAMP are transduced by two ubiquitously-expressed intracellular cAMP receptors, the classic protein kinase A/cAMP-dependent protein kinase (PKA/cAPK) and the more recently discovered exchange protein directly activated by cAMP/cAMP-regulated guanine nucleotide exchange factor (EPAC/cAMP-GEF). Both PKA and EPAC are ubiquitously expressed in all tissues, and an increase in intracellular cAMP levels will lead to the activation of both PKA and EPAC. Therefore, careful dissections of the individual role and relative contribution of EPAC and PKA within the overall cAMP signaling in various model systems are critical for further elucidating the mechanism of cAMP signaling. To date no EPAC-specific antagonists and agonist, as well as isoform-specific agonists have been reported, and developing EPAC-specific pharmacological probes to determine the physiological functions that EPAC play in the overall cAMP-mediated signaling remains a major challenge within the research field. Furthermore, identified regulators of EPAC may lead to new mechanism-based therapeutic strategies specifically targeting the EPAC / cAMP-signaling components as EPAC has been implicated to play important roles in major human pathological conditions such as diabetes, heart disease, and cancer.
This qHTS will be used to screen the Molecular Libraries Small Molecule Repository (MLSMR) as a concentration-titration series using the NCGC unique quantitative screening (qHTS) platform to find activators for EPAC1. In addition, this assay will also be used as a counterscreen for the EPAC2 qHTS. This fluorescent based assay is developed and validated for EPAC1 that measures exchange using EPAC effector Rap1 complex with BODIPY-GDP, a GDP analog with a tethered fluorophores. Activators are identified by monitoring the change in fluorescence signal as the exchanged free BODIPY-GDP has a reduced fluorescence compared to Rap1-bound BODIPY-GDP. Increase in signal (activation) is the desired outcome for the EPAC1 agonist while no activity in this assay is desired for the EPAC2 agonist counterscreen.
[1] de Rooij, J., Zwartkruis, F. J., Verheijen, M. H., Cool, R. H., Nijman, S. M., Wittinghofer, A., and Bos, J.L. (1998) Nature 396, 474-477.
Briefly, three uL of reagents (100 nM EPAC2, 250 nM RAP1B-BODIPY-GDP, 50 uM GDP) were dispensed into a 1536-well Greiner black solid-bottom medium binding assay plate. Controls and test compounds (23 nL) were transferred to the plate via a Kalypsys pin tool equipped with a 1536-pin array. The plates were centrifuged at 1,000 rpm for 15 seconds followed by 5 minute incubation at room temperature. The assay plates were read at 5 minute intervals for 30 minutes in the ViewLux plate reader using 480nm excitation and 540nm emission filters. The results were normalized to the agonist positive control of 6.5 mM cAMP.
% is set by controls: 0 for no effect and ±100 for the full control effect.

Sequence of UniProt Q8WZA2 (Q8WZA2 whole entry, looked up): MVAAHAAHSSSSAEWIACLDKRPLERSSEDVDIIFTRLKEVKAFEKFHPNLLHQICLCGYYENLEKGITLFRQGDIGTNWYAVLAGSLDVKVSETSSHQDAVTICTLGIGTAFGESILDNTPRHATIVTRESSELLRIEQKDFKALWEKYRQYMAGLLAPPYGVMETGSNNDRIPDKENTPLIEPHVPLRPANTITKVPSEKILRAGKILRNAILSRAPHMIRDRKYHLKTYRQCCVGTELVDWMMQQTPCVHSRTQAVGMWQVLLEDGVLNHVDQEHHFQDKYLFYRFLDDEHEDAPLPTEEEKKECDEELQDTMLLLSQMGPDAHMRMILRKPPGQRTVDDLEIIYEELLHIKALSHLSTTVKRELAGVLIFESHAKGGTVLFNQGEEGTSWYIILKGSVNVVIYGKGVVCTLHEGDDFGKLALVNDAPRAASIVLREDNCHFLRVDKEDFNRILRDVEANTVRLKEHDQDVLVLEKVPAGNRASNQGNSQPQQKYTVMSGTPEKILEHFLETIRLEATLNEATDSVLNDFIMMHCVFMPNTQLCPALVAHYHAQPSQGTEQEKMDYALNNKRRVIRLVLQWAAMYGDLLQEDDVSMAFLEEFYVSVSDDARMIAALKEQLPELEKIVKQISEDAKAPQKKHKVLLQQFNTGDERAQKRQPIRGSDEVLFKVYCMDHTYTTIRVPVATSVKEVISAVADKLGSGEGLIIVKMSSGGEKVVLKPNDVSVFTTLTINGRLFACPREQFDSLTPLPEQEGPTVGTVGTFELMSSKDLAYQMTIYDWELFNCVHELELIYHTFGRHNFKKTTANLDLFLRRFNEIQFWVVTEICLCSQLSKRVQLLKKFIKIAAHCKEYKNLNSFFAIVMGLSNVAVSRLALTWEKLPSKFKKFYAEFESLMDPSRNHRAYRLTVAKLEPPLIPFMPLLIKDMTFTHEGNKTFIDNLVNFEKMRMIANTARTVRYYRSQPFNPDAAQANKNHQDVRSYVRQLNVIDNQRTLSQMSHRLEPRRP

activation, inactive:
CN(CCOc1ccc(CC2SC(=O)NC2=O)cc1)c1ccccn1 (stereo not given) -13.1%, O=C(Nc1cccc(F)c1)N1CCCC2(CCNCC2)C1 2.79%, CCC(=O)OCC(=O)[C@@]1(OC(=O)CC)[C@H](C)C[C@H]2[C@H]3[C@H]([C@@H](O)C[C@@]21C)[C@@]1(C)C=CC(=O)C=C1C[C@H]3Cl -15.9%, CC(C)CN1CCC2(CC1)CCN(C(=O)c1cccn1C)CC2 -7.6%, O=C(Cc1c[nH]c2ccccc12)N1CCC(n2c(C3CCCO3)nc3cc(C(F)(F)F)ccc32)CC1 (stereo not given) -7.22%, c1ccc2nc(C3=NCCN3)cnc2c1 -8.87%, CCOC(=O)C[C@H]1c2cc(C(F)(F)F)ccc2S(=O)(=O)N1Cc1ccccc1 -26.4%, CN1CCN(CCC(=O)N2c3ccccc3Sc3ccc(C(F)(F)F)cc32)CC1 3.66%, CC1(C)S[C@@H]2[C@H](NC(=O)C(c3ccccc3)S(=O)(=O)O)C(=O)N2[C@H]1C(=O)O (stereo not given in full) -18.7%, CN(C)CCCO[C@@H]1[C@H]2OC(C)(C)O[C@H]2O[C@@H]1C(O)CO (stereo not given in full) 7.35%, Cc1c(C(=O)NC2CCCCC2)sc2ncnc(NCCN(C)C)c12 -13.8%, O=C1c2ccccc2S(=O)(=O)N1CCCCN1CCN(c2ncccn2)CC1 -15.7%, COc1ccc(O)c(CN2CCCN(c3nc(C)c4cc(C)c(C)cc4n3)CC2)c1 -1.46%, Cc1ccc(S(=O)(=O)O)cc1C -20.6%, Cc1ccc(SC[C@H](C)CN2CC[C@H](NC(=O)OCc3ccccc3)CCC2=O)cc1 -8.78%, CN[C@H](CC(C)C)C(=O)N[C@H]1C(=O)N[C@@H](CC(N)=O)C(=O)N[C@@H]2C(=O)N[C@H]3C(=O)N[C@H](C(=O)N[C@H](C(=O)O)c4cc(O)cc(O)c4-c4cc3ccc4O)[C@H](O)c3ccc(c(Cl)c3)Oc3cc2cc(c3O[C@@H]2O[C@H](CO)[C@@H](O)[C@H](O)[C@@H]2O[C@H]2C[C@](C)(N)[C@H](O)[C@H](C)O2)Oc2ccc(cc2Cl)[C@H]1O -17.1%, CCCCCCCCCCCCCCCCCC(=O)OC(CC(=O)O)C[N+](C)(C)C (stereo not given) -86.4%, COC(=O)c1cc(CNC(=O)c2cccc(C)c2)cc(NC(=O)c2ccncc2)c1 -1.32%, COc1ccccc1C(=O)N1CCCC(c2nc(SCCN3CCOCC3)ncc2C)C1 (stereo not given) -9.75%, COC(=O)N1CCC2(CC1)CN(C(=O)Nc1cccc(C#N)c1)C2 -8.45%, COC(=O)C[C@H]1c2ccccc2S(=O)(=O)N1Cc1ccc(OC)cc1 -19%, Cn1cccc1C(=O)N1CCC2(CCCN(c3ccc(-c4ccccc4)cc3)C2)CC1 -5.47%, NC(N)=O -11.5% and -8.14%, Cc1cccc(C)c1NC(=O)CN1CCCCCC1 -7.8%, O=C(CN1Cc2ccccc2OC(c2ccsc2)C1)NCC1OCCc2ccccc21 (stereo not given) 3.25%, CC(C)(C)c1ccc(C(=O)C[N+]2(C)CCCc3ccccc32)cc1 (stereo not given) -7.25%, Cn1c([N+](=O)[O-])cnc1COC(N)=O -4.63%, Cc1ccc2[nH]c(C(=O)NCc3nc(-c4cccc(NC(=O)c5cc(C)oc5C)c4)oc3C)cc2c1 1.84%, O=C(O)CC1CC(c2ccccc2)=NO1 (stereo not given) -0.506%, Cc1nc2cnc(N(C)C)nc2n(C)c1=O -20.9%, Clc1ccc(C(c2ccc(Cl)cc2)n2cc[n+](CC(OCc3ccc(Cl)cc3Cl)c3ccc(Cl)cc3Cl)c2)cc1 (stereo not given) 17.5%, CN(c1ccccc1)S(=O)(=O)c1ccccc1Br -10.4%, COc1ccc2[nH]cc(CCNc3ncncc3-c3ccccc3C)c2c1 2.95%, COc1ccc(Oc2ncc3nc(C)c(=O)n(CCc4ccccc4)c3n2)cc1 -1.65%, COc1ccc(-c2cn(Cc3cccc(OC)c3)nn2)cc1 -13.5%, CC(=O)OC1CCC2(C)C(=CC=C3C2CCC2(C)C3CCC2C(C)/C=C/C(C)C(C)C)C1(C)C (stereo not given) -0.281%, COc1cc(-c2cnc3ccccc3c2)cc2c1OCCN(C(=O)CCn1nc(C)cc1C)C2 -4.43%, CCCCCc1ccc(-c2cn(CN3C(=O)c4ccccc4C3=O)nn2)cc1 -3.88%, COc1ccc(CNc2cc(-c3ccccc3Cl)ncn2)c(OC)c1 -2.77%, Cn1cc(-c2nc3cnc(Oc4cccc(Cl)c4)nc3n(C3CC3)c2=O)c2ccccc21 -2.86%, CN(C)c1ncc2nc(CCc3ccccc3)c(=O)n(CCC#N)c2n1 3.56%, CC(C)NC[C@H](O)c1ccc(O)c(O)c1 -18.4% and -53.2% and -15%, CC(Oc1ccccc1)C(=O)N[C@@H]1C(=O)N2[C@@H]1SC(C)(C)[C@@H]2C(=O)O (stereo not given in full) 9.22%, COc1cccc(CN2CCC3(CCC(CNC(=O)c4cc(C)nn4C)O3)CC2)c1OC (stereo not given) -7.06%, OCC1O[C@H]([S-])[C@H](O)[C@@H](O)[C@@H]1O.[Au+] (stereo not given in full) -20.1%, O=C(O)CCC/C=C\C[C@@H]1CO[C@H](C(F)(F)F)O[C@@H]1c1ccccc1O -10.1%, COC(=O)c1ccc(CN2C[C@H](Sc3ccccn3)C[C@H]2C(=O)N(C)C)cc1 -5.84%, CC[N+]1(CC(=O)c2ccc(Br)cc2)CCCCC1 -29.4%, N#Cc1ccc(CN2CC3(CCN(C(=O)c4csnn4)CC3)C2)cc1 -3.91%, COC(=O)c1ccccc1C(=O)N1CCc2c(cnc(C)c2CNC(=O)c2ccccc2F)C1 -12.6%, COc1ccc(-c2cc(C(F)F)nn2-c2ccc(S(N)(=O)=O)cc2)cc1F 4.66%, CC(C(=O)O)c1ccc(/C=C2\CCCCC2=O)cc1 (stereo not given) -7.4%, O=C(c1cccc(F)c1)N1CCC[C@@]2(CCN(c3cccc(-c4ccccc4)c3)C2)C1 -24.8%, CC(=O)O[C@H]1C[C@H]2CC[C@@H]3[C@H]4C[C@@H]([N+]5(C)CCCCC5)[C@@H](OC(C)=O)[C@]4(C)CC[C@@H]3[C@@]2(C)C[C@@H]1[N+]1(C)CCCCC1 -8.62%, Cc1ncc2c(c1CNC(=O)c1ccc3c(c1)OCO3)CCN(C(=O)c1cc3ccccc3o1)C2 -5.26%, NCCS(=O)O -0.433% and -8.46%, Cc1oc(-c2ccccc2NC(=O)C2CCC2)nc1CNC(=O)c1ccc(C#CC(C)(C)O)cc1 1.21%, CNc1ncnc2c1ncn2[C@H]1C[C@H](OP(=O)(O)O)[C@H](COP(=O)(O)O)O1 0.269%, Cc1c(C(=O)NCCC2CCCN2C)cnn1-c1nccc(-c2ccccc2F)n1 (stereo not given) -8.53%, CC(C)Cc1nc2cc(NS(=O)(=O)N(C)C)cc(C(=O)N3CCc4ccccc4C3)c2n1C -12.1%, CN(C)c1ncc2nc(-c3cc(F)cc(F)c3)c(=O)n(C)c2n1 16.6%, COc1ccc(-n2c(=O)c(CCc3ccccc3)nc3cnc(N4CCN(C)CC4)nc32)cc1 0.896%, c1cc(NC2CC2)nc(-c2ccoc2)n1 1.74%, CC(C)CN(C[C@@H](OP(=O)(O)O)[C@H](Cc1ccccc1)NC(=O)O[C@H]1CCOC1)S(=O)(=O)c1ccc(N)cc1 -2.37%, C[C@@H](CC#N)CN1CC[C@H](C(C)(C)C)CCC1=O -18.2%, O=c1c(CCc2ccccc2)nc2cncnc2n1-c1ccccc1 -15.2%, COc1cccc2oc(-c3ccc(O)cc3)cc(=O)c12 -0.534%, COc1ccc(-n2c(CNC(=O)c3ccccc3C(F)(F)F)nnc2SC)cc1 -5.83%, CN1CCN(c2ccnc(-c3cccc(NS(C)(=O)=O)c3)n2)CC1 -16.4%, Cc1ccc2c(CC(=O)N3CCOc4ccc(CN5CCOCC5)cc4C3)cc(=O)oc2c1 7.53%, CN1[C@@H]2CC[C@H]1CC(NC(=O)n1c(=O)[nH]c3ccccc31)C2 (stereo not given in full) -9.84%, N[C@@H](C(=O)N[C@@H]1C(=O)N2C(C(=O)O)=C(Cl)CS[C@H]12)c1ccccc1 -15.5%, Cc1ccc2c(c1)ncc[n+]2CC(=O)c1ccc(F)cc1 -42.2%, COc1ccc(CCC(=O)c2c(O)cc(OC3OC(CO)C(O)C(O)C3O[C@@H]3OC(C)C(O)C(O)C3O)cc2O)cc1O (stereo not given in full) 4.23%, COc1cccc(Cn2c(=O)c(-c3ccccc3)nc3cnc(N4CCN(C)CC4)nc32)c1 -12.1%, COc1cc(C[C@@H]2NCCc3cc(O)c(O)cc32)cc(OC)c1OC -23.2%, COc1ccc(NC(=O)[C@@H]2CC=C[C@@H]3CCN(C4CC4)C(=O)[C@@H]32)cc1 -8.93%, CCC(C)(C)C(=O)O[C@@H]1C[C@@H](C)C=C2C=C[C@H](C)[C@H](CC[C@@H]3C[C@@H](O)CC(=O)O3)[C@H]21 -34.3%, CC(=O)O[C@](C)(CCC=C(C)C)C1CC=C(C)CC1 (stereo not given in full) -9.98%, COc1ccc(N2C(=O)[C@@H]3C[C@H]2CN3Cc2cccn2-c2nccs2)cc1Cl 2.5%
